Test results from the RNAGym collection of RNA variant scans (doi:10.1073/pnas.2313332121).
This sample is rich in variants without activity.

B1: TPR 5TU (parent)
chain: GGAUCUUCUCGAUCUAACAAAAAAGACAAAUCUGCCACAAAGCUUGAGAGCAUCUUCGGAUGCAGAGGCGGCAGCCUUCGGUGGCGCGAUAGCGCCAACGUUCUCAACUAUGACACGCAAAACGCGUGCUCCGUUGAAUGGAGUUUAUCAUG

Variants of: B1
Experiment: polymerase ribozyme fitness, log enrichment relative to wild type (log ratio); higher = more active; in vitro selection for triplet polymerase activity
Summary of the method: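 Genotype fitness is the logarithm of its enrichment divided by wild-type enrichment, using inverse-variance-weighted averages of replicates. That logarithm is base 2. Enrichment was measured by Illumina sequencing of input and output libraries from one triplicate in vitro selection round, with frozen incubation at −7 °C, on PCR-built, transcribed mutant libraries of each subunit of a heterodimeric triplet polymerase ribozyme, retaining genotypes with ≥10 input reads and ≥1 read per output.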

Row | Variant | polymerase ribozyme fitness (log ratio)
1 | GGAUCUUCUCGAUCUAACAUGAAAGACAAAUCUGCCACAAAGCUUGAGAGUAUCUUCGGAUGCAGAGGCGGCAGCCUUCGGUGGCGCGAUAGCGCCAACGUUCUCAACUAUGACACGCAAAACGCGUGCUCCCUUGAAUGGAGUUUAUCAUG | ≤ -4.2
2 | GGAUCUUCUCGAUCUAACAUCAAAGACAAAUCUGCCACACAGCUUGAGAGCAUCUUCGGAUGCAGAGGCGGCAGCCUUCGGUGGCGCGAUAGCGCCAGCGUUCUCAGCUAUGACACGCUAAACGCGUGCUCCGUUGAAUGGAGUUUAUCAUG | ≤ -4.2
3 | GGAUCUUCUCGAUCUAACAGAAAAGACAAAUCUGCCACAAAGCUUGAGAGCAUCUUCGGAUGCAGAGGCGGCAGCCUUCGGUGGCGCGAUAGCGCCAACGUUCUCAACUAUGACACACAAAACGCGUGCUCCGUUGAAUGGAGUUUAUCAUG | -0.0564
4 | GGAUCUUCUCGAUCUAACAGAAAAGACAAAUCUGCCACAAAGCUUGAGAGCAUCUUCGGAUGCAGAGGCGGCAGCCUUCGGUAGCGCGAUAGCGCCAACGUUCUCAACUAUGACACGCAAAACGCGUGGUCCGUUGAAUGGAGUUUAUCAUG | -3.83
5 | GGAUCUUCUCGAUCUAACAUUAAAGACAAAUCUGCCCCAAAGCUUGAGAGCAUCUUCGGAUGCAGAGGCGGCAGCCUUCGGUGGCGCGAUAGCGCAAACGUUCUCAACUAUGACACGCAAGACGCGUGCUCCGUUGAAUGGAGUUUAUCAUG | -1.8
6 | GGAUCUUCUCGAUCUAACAGAAAAGACAAAUCUGCCACAAAACUUGAGAGCAUCUUCGGAUGCAGAGGCGGCAGCCUUCGGGGACGCGAUCGCGCCAACGUUCUCACCUAUGACACGCAAAACGCGUGCUCCGUUGAAUGGAGUUUAUCAUG | ≤ -4.2
7 | GGAUCUUCUCGAUCUAACAGAAAAGACAAAUCUGCCACAAAGCUUGAGAGCAUCUUCGGAUGCAGAGACGGCAGCCUUCGAUGGCGCGAUAGCGCCACCGUUCUCAACUAUGACACGCAAAACGCGUGCUCCGUUGAAUGCAGUAUAUCACG | ≤ -4.2
8 | GGAUCUUCUCGAUCUAACAGAAAAGACAAAUCUGCCACAAAGCUUGAGACCAUGUUCGGAUGCAGAGGCGGCAGCAUUCGGUGGCGGGAGAGCGUCAACGUUCUCAACUAUGACACGCAAAACGCGUGCUCCGUUGAAUGGAGUUUAUCAUG | ≤ -4.2
9 | GGAUCUUCUCGAUCUAACAGAAAAGACAAAUCUGCCACAAAGCUUGAAAGCAUCUUCGGAUGCAGAGGCGGCAGCCUUCGGUGGCGCGAUAGCGCCAACGUUCUCAACUAUGACACGCCAUACGCGUGCUCCGUUUAAUGGAGUUUAUCAUG | -3.51
10 | GGAUCUUCUCGAUCUAACAGAAAAGACAAAUCUGCCACAAAGCUUGAGAGCAUCGUCGGAUGCAGAGGCGGCAGCCUUCGGUGGCGCGAUACCGCCAACGUUCUUAACUAUGACACGCAAAACGCGUGCUCCGUUGAAUGGACUUUAUCAUG | ≤ -4.2
11 | GGAUCUUCUCGAUCUAACAGAAAAGACAAAUCUGCCACAAAGCUUGAGAGCAUCUUCGGAUGCAGAGGCGGCAGCCUUCGGUCGCGCGACAGCGCCAACGUUCUCAACUAUGACACGCAAAACGCGUGCUCCGUUGAAUGGAGUUUAUAAUG | ≤ -4.2
12 | GGAUCUUCUCGAUCUAACAGAAAAGACAAAUCUGCCACAAAGCUUGAGAGCAUCUUCGGAUGCAGAGGCGGCAGCCUUCGGUGACGCGAUAGCGCCAACGUUCUCAACUAUGACAAGGAAUACGCGUGCUCCGUUGAAUGGAGUUUAUCAUG | ≤ -4.2
13 | GGAUCUUCUCGAUCUAACAGAAAAGACAAAUCUGCCACAAAGCUUGAGAGCAUCUUCGGAUUCAGAGGCGGCAGCCUUCGGUGGCGGGAUAGCGCCAACGUGCUCAACUAUGACACGCAAAACGCGUGCUCCGUUGAAUGGAGUUUAUCAUG | ≤ -4.2
14 | GGAUCUUCUCGAUCUAACAGAAAAGACAAAUCUACCACAAAGCUUGAGAGCAUCUUCGGAUGCAGAGGCGGCAGCCUUCGGUGGCGCGAUAGCGCCAACGUUCUCAACUAUGACACGGAACACGCGUGCUCCGUUGAAUGGAGUUUAUCAUG | -3.83
15 | GGAUCUUCUCGAUCUAACAGAAAAGACAAAUCUGCCACAAAGCUUGAGAGCAUCUUCGGAUGCAGAGUCGGCAGCCUUCGGUGGCGCGAUAGCGCCAACGUUCUCAACUAUGACACGCAAAACGCUUGCUCAGUUGAAUGGAGUUUAUCAUG | ≤ -4.2
16 | GGAUCUUCUCGAUCUAACAGAAAAGACAAAUCGGCCACAAAGCAUGAGAGCAUCUUCGGAUGCAGAGGCGGCAGCCUUCGGUGGCGCGAUUGCGCGAACGUUCUCAACUAUGACACGCAAAACGCGUGCUCCGUUGAAUGGAGUUUAUCAUG | ≤ -4.2
17 | GGAUCUUCUCGAUCUAACAGAAAAGACAAAUCUGCCACAAAGCUUGAGAGCAUCUUCGCAUGCAGAGGCGGCAGCCUUCGGUGGCGCGAUAGCCCCAACGUUCUCAACUAUGACACGCAAAACGCGUGCUCCGUUGAAUGGAGUUUAUCAUG | -0.672
18 | GGAUCUUCUCGAUCUAACAGAAAAGACAAAUCUGCCACAAAGCUUGAGAGCAUCUUCGGAUGCAGAGGCGGCAGCCUUCGGUGGCGCGAUAGCGCCAACGUUCCCAACUAUGACACUCAAAACGCGUGCUCCGUUGAAUGGAGUUUAUCAUG | -0.102
19 | GGAUCUUCUCGAUCUAACAGAAAAGACAAAUCUGCCACAAAGCUUGAGACCAUCUUCGGAUGCAGAGGCGGCAGACGUCGGUGGCGCGAUUGCGCCAACGUUCUCAACUAUGACACGCAGAACGCGUGCUCCGUUGAAUGGAAUUUAUCAUG | ≤ -4.2
